Reference: the antibiotic and cytotoxicity screens of Wong et al. (2023)
This is one part of the list.

Tested on: HSkMC (human skeletal muscle cells)
Assay: cytotoxicity call (relative viability < 0.9)
Settings: 10 µM

Question: Which cytotoxicity call does the source give for `Cc1ccc(S(=O)(=O)N[C@@H]2C=C[C@@H](CC(=O)NCCN3CCCCC3)O[C@H]2CO)cc1` here?
Answer: inactive

Question: With `CC(C)n1c(=S)[nH]c2ccccc21` as the molecule, how does the cytotoxicity call read?
Answer: inactive

Question: For `Cc1ccc(S(=O)(=O)N(C)C[C@@H]2OCCCC[C@H](C)Oc3ccc(NC(=O)CCC(F)(F)F)cc3C(=O)N([C@H](C)CO)C[C@@H]2C)cc1`, which cytotoxicity call is on record?
Answer: inactive

Question: For `COc1ccc(NC(=O)Nc2ccc3c(c2)C(=O)N([C@@H](C)CO)C[C@H](C)[C@H](CN(C)S(=O)(=O)c2cccs2)OCCCC[C@H](C)O3)cc1`, which cytotoxicity call is on record?
Answer: inactive

Question: With `COc1ccc(S(=O)(=O)N(C)C[C@H]2Oc3ccc(NS(=O)(=O)c4ccccc4)cc3CC(=O)N([C@H](C)CO)C[C@@H]2C)cc1` as the molecule, how does the cytotoxicity call read?
Answer: inactive

Question: For `C[C@@H]1CCCCO[C@H](CN(C)C(=O)C2CCCCC2)[C@@H](C)CN([C@@H](C)CO)C(=O)c2cc(NS(=O)(=O)c3cccs3)ccc2O1`, which cytotoxicity call is on record?
Answer: inactive

Question: With `C[C@H]1CN([C@@H](C)CO)C(=O)c2cccc(NC(=O)c3ccncc3)c2O[C@@H]1CN(C)S(=O)(=O)c1ccc(F)cc1` as the molecule, how does the cytotoxicity call read?
Answer: inactive

Question: `COc1ccc([Si](C)(C)[C@@H]2[C@@H](CCOC(=O)NCCCCCC(=O)NO)O[C@@]3(C(=O)N(Cc4cccc(I)c4)c4ccccc43)[C@H]2C)cc1` was tested. Which cytotoxicity call did it give?
Answer: inactive

Question: With `C=C(NC(=O)C(=C)NC(=O)c1csc(C2=N[C@@H]3c4csc(n4)[C@@H]4NC(=O)c5csc(n5)[C@H](C(C)(O)[C@@H](C)O)NC(=O)[C@H]5CSC(=N5)/C(=C/C)NC(=O)[C@H]([C@@H](C)O)NC(=O)c5csc(n5)[C@]3(CC2)NC(=O)[C@@H](C)NC(=O)C(=C)NC(=O)[C@@H](C)NC(=O)[C@@H]([C@H](C)CC)N[C@H]2C=Cc3c([C@@H](C)O)cc(nc3[C@@H]2O)C(=O)O[C@H]4C)n1)C(N)=O` (some centres undefined) as the molecule, how does the cytotoxicity call read?
Answer: inactive

Question: How did the cytotoxicity call turn out when `C[C@@H]1CN([C@@H](C)CO)C(=O)Cc2cc(NS(C)(=O)=O)ccc2O[C@H]1CN(C)S(=O)(=O)c1ccc(Cl)cc1` was run?
Answer: inactive

Question: With `Cc1ccc(S(=O)(=O)Nc2ccc3c(c2)C(=O)N([C@@H](C)CO)C[C@H](C)[C@@H](CN(C)C(=O)Nc2ccc(C(F)(F)F)cc2)OCCCC[C@H](C)O3)cc1` as the molecule, how does the cytotoxicity call read?
Answer: inactive

Question: For `COc1ccc(S(=O)(=O)Nc2ccc3c(c2)CC(=O)N([C@@H](C)CO)C[C@@H](C)[C@H](CN(C)S(=O)(=O)c2ccc(C)cc2)O3)cc1`, which cytotoxicity call is on record?
Answer: inactive

Question: With `CC(C)NC(=O)N1Cc2cc(C(=O)NC3CCCCC3)nc(-c3cccc(-c4cccnc4)c3)c2[C@H]1CCO` as the molecule, how does the cytotoxicity call read?
Answer: active

Question: With `C[C@@H]1CN([C@H](C)CO)C(=O)Cc2cc(NC(=O)Cn3cnnn3)ccc2O[C@@H]1CN(C)S(C)(=O)=O` as the molecule, how does the cytotoxicity call read?
Answer: inactive

Question: How did the cytotoxicity call turn out when `C[C@H](CO)N1C[C@H](C)[C@@H](CN(C)Cc2ccc(Oc3ccccc3)cc2)Oc2ccc(NS(=O)(=O)c3ccc(F)cc3)cc2CC1=O` was run?
Answer: inactive

Question: `COc1ccc(S(=O)(=O)N2[C@@H]3CC[C@@H](C3)[C@H]2c2nc3cccc(OCc4ccccc4)c3[nH]2)cc1OC` was tested. Which cytotoxicity call did it give?
Answer: inactive

Question: For `C[C@@H]1CN([C@@H](C)CO)C(=O)c2cc(NC(=O)CCC(F)(F)F)ccc2O[C@@H](C)CCCCO[C@@H]1CN(C)Cc1ccc2c(c1)OCO2`, which cytotoxicity call is on record?
Answer: inactive

Question: With `C[C@H]1CN([C@@H](C)CO)C(=O)Cc2cc(NC(=O)Cn3cnnn3)ccc2O[C@H]1CN(C)S(=O)(=O)c1cccs1` as the molecule, how does the cytotoxicity call read?
Answer: inactive

Question: With `Cc1nc(CSCc2ccc(Cl)cc2Cl)cs1` as the molecule, how does the cytotoxicity call read?
Answer: inactive

Question: Which cytotoxicity call does the source give for `C[C@H](CO)N1C[C@H](C)[C@@H](CN(C)Cc2ccc(C(=O)Nc3ccccc3N)cc2)Oc2ccc(NS(=O)(=O)c3ccc(Cl)cc3)cc2CC1=O` here?
Answer: inactive

Question: For `C[C@@H]1CN([C@H](C)CO)C(=O)c2cc(NS(=O)(=O)c3ccc(F)cc3)ccc2O[C@H]1CN(C)CC1CC1`, which cytotoxicity call is on record?
Answer: inactive

Question: With `COc1ccc(S(=O)(=O)Nc2ccc3c(c2)C(=O)N([C@@H](C)CO)C[C@@H](C)[C@@H](CN(C)CC2CC2)O3)cc1` as the molecule, how does the cytotoxicity call read?
Answer: inactive

Question: For `C[C@H](CO)N1C[C@H](C)[C@H](CN(C)C(=O)Nc2cccc3ccccc23)Oc2ccc(NC(=O)Cn3cnnn3)cc2CC1=O`, which cytotoxicity call is on record?
Answer: inactive

Question: `C[C@@H]1CCCCO[C@@H](CN(C)C(=O)Nc2ccc(C(F)(F)F)cc2)[C@@H](C)CN([C@H](C)CO)C(=O)c2cc(NS(=O)(=O)c3ccc(F)cc3)ccc2O1` was tested. Which cytotoxicity call did it give?
Answer: inactive

Question: Which cytotoxicity call does the source give for `C[C@@H]1CCCCO[C@H](CN(C)C(=O)Nc2ccc(F)cc2)[C@@H](C)CN([C@@H](C)CO)C(=O)c2cc(NC(=O)CCCN(C)C)ccc2O1` here?
Answer: inactive

Question: With `COc1ccc(NC(=O)N(C)C[C@@H]2Oc3ccc(NC(=O)Nc4cccc5ccccc45)cc3CC(=O)N([C@H](C)CO)C[C@H]2C)cc1` as the molecule, how does the cytotoxicity call read?
Answer: inactive

Question: `COc1ccc(S(=O)(=O)N(C)C[C@@H]2Oc3c(NS(C)(=O)=O)cccc3C(=O)N([C@@H](C)CO)C[C@H]2C)cc1` was tested. Which cytotoxicity call did it give?
Answer: inactive

Question: Which cytotoxicity call does the source give for `C[C@@H]1CCCCO[C@H](CN(C)Cc2ccccc2)[C@H](C)CN([C@H](C)CO)C(=O)c2cc(NS(=O)(=O)c3ccccc3)ccc2O1` here?
Answer: inactive

Question: How did the cytotoxicity call turn out when `CCCN(C)C[C@@H]1Oc2cc(C#Cc3ccc(OC)cc3)ccc2S(=O)(=O)N([C@H](C)CO)C[C@@H]1C` was run?
Answer: inactive

Question: How did the cytotoxicity call turn out when `C[C@H](CO)N1C[C@H](C)[C@H](CN(C)S(C)(=O)=O)Oc2c(NS(=O)(=O)c3cn(C)cn3)cccc2C1=O` was run?
Answer: inactive

Question: `Cc1nnc(NCc2ccccc2)n(N)c1=O` was tested. Which cytotoxicity call did it give?
Answer: inactive

Question: Which cytotoxicity call does the source give for `C[C@H]1CN([C@@H](C)CO)C(=O)c2cccc(NS(=O)(=O)c3ccccc3)c2O[C@@H]1CN(C)Cc1ccc(Oc2ccccc2)cc1` here?
Answer: inactive

Question: With `Cc1ccc(S(=O)(=O)Nc2cccc3c2O[C@@H](CN(C)S(=O)(=O)c2ccc(F)cc2)[C@H](C)CN([C@@H](C)CO)C3=O)cc1` as the molecule, how does the cytotoxicity call read?
Answer: inactive

Question: `CC(C)NC(=O)N(C)C[C@@H]1Oc2ccc(NC(=O)Nc3ccc4c(c3)OCO4)cc2C(=O)N([C@@H](C)CO)C[C@H]1C` was tested. Which cytotoxicity call did it give?
Answer: inactive

Question: How did the cytotoxicity call turn out when `C[C@H](CO)N1C[C@H](C)[C@H](CN(C)S(=O)(=O)c2ccc(Cl)cc2)OCc2cnnn2CCCC1=O` was run?
Answer: inactive

Question: With `C[C@@H]1CN([C@H](C)CO)C(=O)CCCn2cc(nn2)CO[C@@H]1CN(C)Cc1cccc2c1OCCCO2` as the molecule, how does the cytotoxicity call read?
Answer: inactive

Question: With `C[C@@H]1CCCCO[C@H](CN(C)S(=O)(=O)c2cn(C)cn2)[C@@H](C)CN([C@H](C)CO)C(=O)c2cc(NS(=O)(=O)c3cccs3)ccc2O1` as the molecule, how does the cytotoxicity call read?
Answer: inactive

Question: How did the cytotoxicity call turn out when `C[C@@H]1CN([C@@H](C)CO)C(=O)c2cc(NC(=O)Nc3cccc4ccccc34)ccc2O[C@@H]1CN(C)C(=O)Nc1cccc2ccccc12` was run?
Answer: active

Question: Which cytotoxicity call does the source give for `COc1ccc(NC(=O)Nc2ccc3c(c2)C(=O)N([C@H](C)CO)C[C@@H](C)[C@H](CN(C)Cc2ccncc2)OCCCC[C@@H](C)O3)cc1` here?
Answer: inactive
